The list shows a part of the results. At the low end of the ranking the order means little.
These sequences were tested against T1, GST-Rok (full length) (UniProt O34857) (assay: protein binding microarray). Settings: Rok is a gene silencer of Bacillus subtilis; high values mean tight binding; most listed sequences are background and not binding sites; double strand, one strand shown.
T1 sequence: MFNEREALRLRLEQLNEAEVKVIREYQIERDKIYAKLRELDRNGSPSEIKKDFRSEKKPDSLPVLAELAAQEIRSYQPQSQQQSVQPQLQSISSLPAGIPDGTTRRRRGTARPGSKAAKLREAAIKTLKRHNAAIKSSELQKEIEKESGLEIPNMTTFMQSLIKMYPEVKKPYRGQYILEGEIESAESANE
Work on ATACGGTC yielded a binding signal of -0.0248 E-score.
GCAGAAAC showed a binding signal of -0.0153 E-score.
TGAGACAA was tested, and the binding signal was -0.0486 E-score.
For ACAGGCGT, the binding signal was -0.0875 E-score.
ACTGCGTA was tested, and the binding signal was 0.177 E-score.
CCGAAGAG showed a binding signal of -0.241 E-score.
Sequence CATAACAG has a binding signal of 0.134 E-score.
In the case of AACGTGCT, the binding signal is reported as 0.0531 E-score.
GAATCCTA was tested, and the binding signal was -0.0459 E-score.
Sequence ATAGCCTA has a binding signal of 0.0588 E-score.
For CTACTATA, the binding signal was 0.399 E-score.
AGGCTGGA gave a binding signal of -0.214 E-score.
Sequence AGCGCCGC has a binding signal of -0.274 E-score.
In the case of GGGCAGTA, the binding signal is reported as -0.0575 E-score.
For ATGCGTTA, the binding signal was 0.171 E-score.
With AATCATGA the binding signal was -0.0298 E-score.
For CTCCGTCC, the binding signal was -0.346 E-score.
Work on TCTAACAA yielded a binding signal of 0.0589 E-score.
ACTCACAG showed a binding signal of -0.0591 E-score.
CTTCGATA showed a binding signal of 0.123 E-score.
CTCGCACA was tested, and the binding signal was -0.247 E-score.
CCCCCTGA showed a binding signal of -0.395 E-score.
ATGAACAC was tested, and the binding signal was -0.057 E-score.
ACTCTCAC showed a binding signal of 0.187 E-score.
Sequence CGGACAGC has a binding signal of -0.1 E-score.
AAGTGGGA showed a binding signal of -0.224 E-score.
For CCGAACCA, the binding signal was -0.227 E-score.
Sequence CAGCCTAC has a binding signal of -0.0926 E-score.
In the case of CTAATGCC, the binding signal is reported as -0.0513 E-score.
Work on ACTGTTAT yielded a binding signal of 0.287 E-score.
For ACGAATCC, the binding signal was 0.0453 E-score.
For TTGCCAAA, the binding signal was 0.0655 E-score.
For TAACACAA, the binding signal was 0.116 E-score.
CAAATCCA showed a binding signal of -0.0639 E-score.
CTCGGAAC gave a binding signal of -0.246 E-score.
For TAGCAACA, the binding signal was 0.21 E-score.
Work on ACCTCCGA yielded a binding signal of -0.276 E-score.
With AATGGGAA the binding signal was -0.0114 E-score.
AGTAGCAC showed a binding signal of 0.14 E-score.
Work on CGCCCCCG yielded a binding signal of -0.325 E-score.
CTCTTTAC showed a binding signal of 0.158 E-score.
Sequence CGTACCAC has a binding signal of -0.0224 E-score.
GACTCGCA was tested, and the binding signal was -0.145 E-score.
GACTGACC showed a binding signal of -0.0978 E-score.
With AAGCGTCT the binding signal was -0.0297 E-score.
Sequence AGCTATCA has a binding signal of 0.336 E-score.
CACGAATA gave a binding signal of 0.215 E-score.
TCACGCGA gave a binding signal of 0.0466 E-score.
ATCAGGCC showed a binding signal of -0.131 E-score.
For ATGCGGTA, the binding signal was 0.174 E-score.
With AGAACCAA the binding signal was -0.0547 E-score.
CGGTAGAA was tested, and the binding signal was 0.417 E-score.
Work on ACGTGATG yielded a binding signal of -0.13 E-score.
In the case of ACGCTCGC, the binding signal is reported as -0.246 E-score.
CTAGAGTA was tested, and the binding signal was 0.185 E-score.
With CGCCTCTC the binding signal was -0.282 E-score.
For AACGTGCA, the binding signal was 0.133 E-score.
In the case of CGCGAATA, the binding signal is reported as 0.0566 E-score.
In the case of ACAATAGA, the binding signal is reported as 0.281 E-score.
With ATCTCTAC the binding signal was 0.0894 E-score.
CTGGTCTC showed a binding signal of 0.0532 E-score.
With ACATACAT the binding signal was 0.295 E-score.
GGGGCTAA showed a binding signal of -0.24 E-score.
ACAAATAT gave a binding signal of 0.402 E-score.
In the case of AGCATTCG, the binding signal is reported as -0.0466 E-score.
In the case of TCATCTAA, the binding signal is reported as 0.0754 E-score.
For AATGTTTG, the binding signal was 0.124 E-score.
Work on GCCGTGCC yielded a binding signal of -0.324 E-score.
CATGCACA gave a binding signal of -0.139 E-score.
CCGTAAAG showed a binding signal of -0.216 E-score.
In the case of ACATCATA, the binding signal is reported as 0.145 E-score.
In the case of CACCGTTA, the binding signal is reported as 0.173 E-score.
CACCCGGC gave a binding signal of 0.0021 E-score.
CTAGGGTC showed a binding signal of -0.0484 E-score.
Work on GGCGAGCA yielded a binding signal of -0.295 E-score.
AATAGCCA was tested, and the binding signal was 0.0168 E-score.
In the case of ACCTTAGA, the binding signal is reported as 0.00282 E-score.
In the case of ACATCCTC, the binding signal is reported as -0.00918 E-score.
CCATATCA was tested, and the binding signal was 0.0943 E-score.
For CAAAACGG, the binding signal was -0.000516 E-score.
For TGACTTAA, the binding signal was 0.04 E-score.
CCGCGCTC was tested, and the binding signal was -0.214 E-score.
GTGTAACA showed a binding signal of 0.157 E-score.
With CTATATAG the binding signal was 0.402 E-score.
For ACCTTGCC, the binding signal was -0.137 E-score.
GGGCGGGA gave a binding signal of -0.293 E-score.
With ACAGTTAT the binding signal was 0.295 E-score.
Work on GTGGTACA yielded a binding signal of 0.0722 E-score.
GTCTGACA showed a binding signal of -0.19 E-score.
CGTTACTC showed a binding signal of -0.0623 E-score.
For AGCGTCCG, the binding signal was -0.126 E-score.
Work on CCGGCGTA yielded a binding signal of -0.111 E-score.
In the case of CAAGTGTG, the binding signal is reported as 0.116 E-score.
CAGTGGAG was tested, and the binding signal was -0.235 E-score.
CCCTTTAA was tested, and the binding signal was -0.168 E-score.
Sequence GCACACGA has a binding signal of 0.023 E-score.
Work on CCAGACAC yielded a binding signal of -0.0826 E-score.
For CCCCTCAA, the binding signal was -0.198 E-score.
GAAGTACC was tested, and the binding signal was 0.0862 E-score.
CGCCGCGA gave a binding signal of -0.234 E-score.
For CTTTACGA, the binding signal was 0.0116 E-score.
Work on AAAAGCCA yielded a binding signal of 0.0244 E-score.
With GAGCTCCA the binding signal was -0.141 E-score.
CAGGTACC gave a binding signal of 0.168 E-score.
AACATGTT was tested, and the binding signal was 0.0394 E-score.
In the case of AGACACCT, the binding signal is reported as -0.256 E-score.
AGGGGTAG showed a binding signal of 0.034 E-score.
For TAAACTGA, the binding signal was 0.0984 E-score.
Sequence CACCAACA has a binding signal of -0.0215 E-score.
In the case of ATGGAGGG, the binding signal is reported as -0.32 E-score.
Sequence TCAGAAAA has a binding signal of -0.147 E-score.
Work on AGGGGAGC yielded a binding signal of -0.308 E-score.
In the case of AAGGTTGG, the binding signal is reported as -0.0381 E-score.
For GGTATTAC, the binding signal was 0.268 E-score.
Work on ATGCTGTG yielded a binding signal of 0.0717 E-score.
For ATGGTCAG, the binding signal was -0.103 E-score.
Work on TAAAAACA yielded a binding signal of 0.192 E-score.
AGGAGGCC was tested, and the binding signal was -0.318 E-score.
For AGTACAAG, the binding signal was 0.217 E-score.
CCCAGTAG was tested, and the binding signal was 0.151 E-score.
With ACGTGTTG the binding signal was 0.157 E-score.
Work on TATACGGA yielded a binding signal of 0.203 E-score.
For TAACTTGA, the binding signal was 0.102 E-score.
For CCCGCCAC, the binding signal was -0.383 E-score.
GAATCTAA gave a binding signal of 0.201 E-score.
Sequence CGCTCCTA has a binding signal of -0.000475 E-score.
ACTCGAGA gave a binding signal of -0.0236 E-score.
For AGGGGGTC, the binding signal was -0.413 E-score.
For AAAACGCT, the binding signal was 0.0282 E-score.
Work on AGTACGGA yielded a binding signal of 0.214 E-score.
In the case of ACTGGGTA, the binding signal is reported as 0.0458 E-score.
With GGATTTTA the binding signal was 0.274 E-score.
With ACGCGTGG the binding signal was 0.0091 E-score.
CCACGATC was tested, and the binding signal was -0.171 E-score.
ACCCTGGA showed a binding signal of -0.086 E-score.
With CCTACGTC the binding signal was -0.128 E-score.
CTCGCAAG showed a binding signal of -0.133 E-score.
ATCTCTGG was tested, and the binding signal was 0.0407 E-score.
CCTCCTGA was tested, and the binding signal was -0.346 E-score.
For AACCAGGT, the binding signal was -0.244 E-score.
For GCCCACGA, the binding signal was -0.303 E-score.
Sequence AGATACAC has a binding signal of 0.212 E-score.
Work on GCAAGCCC yielded a binding signal of -0.251 E-score.
GCCCACTA gave a binding signal of 0.00538 E-score.
Sequence AAGTCATC has a binding signal of -0.00303 E-score.
In the case of GGTTTTCA, the binding signal is reported as 0.0208 E-score.
For AGCTAACG, the binding signal was 0.0558 E-score.
In the case of AGGTAAAA, the binding signal is reported as 0.256 E-score.
CGCAGTGC showed a binding signal of -0.0225 E-score.
GGAGAACA showed a binding signal of -0.231 E-score.
AATCCCCG gave a binding signal of -0.17 E-score.
Work on ACCCTGAA yielded a binding signal of -0.182 E-score.
Work on CCTAGTGA yielded a binding signal of -0.0373 E-score.
AGCCTGCG showed a binding signal of -0.0872 E-score.
For CCCGGATA, the binding signal was -0.244 E-score.
Work on CGCACCAG yielded a binding signal of -0.0807 E-score.
In the case of AACTTCTA, the binding signal is reported as 0.296 E-score.
With ACCGCCGA the binding signal was -0.213 E-score.
GTCCCACA gave a binding signal of 0.00138 E-score.
In the case of AGCCCCCA, the binding signal is reported as -0.304 E-score.
With CGCATTAA the binding signal was 0.0651 E-score.
CATCTCTC was tested, and the binding signal was -0.108 E-score.
For ATATCAGA, the binding signal was 0.221 E-score.
For CGATGACC, the binding signal was -0.152 E-score.
For CTCACAAA, the binding signal was -0.0424 E-score.
Sequence CATTGTGG has a binding signal of -0.133 E-score.
ATTGGCGG gave a binding signal of -0.201 E-score.
In the case of ACAACGAG, the binding signal is reported as 0.021 E-score.
Sequence ATAAGTCG has a binding signal of 0.0929 E-score.
For AGTGAAAG, the binding signal was 0.109 E-score.
In the case of GGATTCTA, the binding signal is reported as 0.262 E-score.
Sequence CTAGCTAA has a binding signal of 0.133 E-score.
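Also: rank score from −0.5 (least bound) to 0.5 (best bound).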
